# According to PMC12136788:
# Some of the results follow.
# B1: chr22:24237240:24237241:+_ENSG00000240972_ENST00000215754|hu_mus|FALSE|FALSE (ssRNA)
# RNA: GGGAGUUCUACAGUCCGACGAUCGACUCAAGCGAAGGUGGAACCGUUCCAGCCCACGUUGGCAGCGUUCAUGUCGUAAUAGUUGAUGUAGACCCGGUCCGGGCUGAUGUGCAGGCGAUCGGACAGCAGGCCACACAGCAGCUUCAACAGAGGAUUGAGCAUCA
# B2: chr14:89307221:89307222:+_ENSG00000165533_ENST00000346301|hu_mus|hu_hu_hu_mus_False|28_78 (ssRNA)
# RNA: GGGAGUUCUACAGUCCGACGAUCUCCUGUUUGGUUAGUGCCAGGGAGCUUCAAAGACGUUCCAGGGCGUGGGACCUGAGCAAUAGCAUUUUCAUCCAGGAUCAUUUCUGCAAUUCCUUCCUGGUCCACAUCAAUUUCAUCUAUCAACAGAGGAUUGAGCAUCA
# B3: chr3:95061978:95061979:-_ENSMUSG00000015711_ENSMUST00000015855|mus_hu|FALSE|FALSE (ssRNA)
# RNA: GGGAGUUCUACAGUCCGACGAUCGCGUUCCAGGACUUCACAGAUCGUUGUUUGGAGUGCCACAUGGGGACAGAAAAUAGCCAACUGCCGCACUGGCUCAUUGUGAGUGUUGAAAAAGAUAGUCAUGGCAACCAGGACAUCAUACAACAGAGGAUUGAGCAUCA
# B4: chr4:83347727:83347728:-_ENSG00000152795_ENST00000602300|hu_mus|motif|central (ssRNA)
# RNA: GGGAGUUCUACAGUCCGACGAUCCCAGUAUAAUCAUAGCCGCCAUAGCCACUAUAGUUCUGAUCACCACCAUAGGCACGGUUAUAAUUUCCAUAUCCUUGAUCAUAAUAGUUAUUAAAUCCUUGGUUCCAGUUUUGGCCCUGACAACAGAGGAUUGAGCAUCA
# B5: chr16:33771563:33771564:+_ENSMUSG00000075254_ENSMUST00000152782|mus_mus|FALSE|FALSE (ssRNA)
# RNA: GGGAGUUCUACAGUCCGACGAUCAGACUUAGAGUGGAUAUAAGUAUAAAAAAUAACCAAAUUCUUACAAAUAACACAUUGCUACUACAGUACUGAAUAAUUAUUGGAGGUGACAUUAUAAUACAACUUUAAAUAACAUUCUCACAACAGAGGAUUGAGCAUCA
# B6: chr7:141445308:141445309:+_ENSG00000106028_ENST00000265304|hu_hu|hu_hu_hu_mus_False|68_68 (ssRNA)
# RNA: GGGAGUUCUACAGUCCGACGAUCUAUGAUUGUUGUUGCUUGCCGCCUCACAUUGUUUUUAUCCAUGUAUUCACCAUAGUCCACUUUCCCUUCCACAAAUAUACGAGCCCCCUUUUUCACAUACUGAUAUGCCACAUCUCUGAGCAACAGAGGAUUGAGCAUCA
# B7: 5801301_5805119_1971_3pUTR_ENSG00000099219_ENST00000339450|human|control|control (ssRNA)
# RNA: GGGAGUUCUACAGUCCGACGAUCGCUCUUGGCAAGGUAGAUGAAGUUAAUAAAAUAGGACGAGAGAAUCAUUGUACAGCCAGCCAAAAUGGAUGCCAGCACAACAUCAGGUGGGAUUUCAGAACCACUUCUCCCGAGGAUAGGCAACAGAGGAUUGAGCAUCA
# B8: chr4:148551591:148551592:-_ENSMUSG00000063077_ENSMUST00000060537|mus_hu|mus_mus_mus_hu_False|58_68 (ssRNA)
# RNA: GGGAGUUCUACAGUCCGACGAUCACCUGACAAAAUUAAAUAUCCCUGUAAAUUAGACAAUAAGCAGCAGGUAACAAAGUCUAUGCUUUGGAAUAUGUGCCAGGAAAAGUCAUCUUGUUUUUAGAUCUCAAGAGACAGUUCACACAACAGAGGAUUGAGCAUCA
# B9: 28395116_28395236_4612_CDS_ENSG00000100154_ENST00000397906|human|control|control (ssRNA)
# RNA: GGGAGUUCUACAGUCCGACGAUCCUCUUCCUCGGCCGAUGGCAUGGGCCCCCACAGCCACCUGUCCAUCACGGCCGAUGGUAGCUUGGGGUUGCCGAUGACAGCCGCCAUGGAUGUGGAGCUGGAGUAUGUGGGCGGGUUCUUCAACAGAGGAUUGAGCAUCA
# B10: chr7:26236612:26236613:-_ENSG00000122566_ENST00000356674|hu_hu|FALSE|FALSE (ssRNA)
# RNA: GGGAGUUCUACAGUCCGACGAUCAACAAACAGCUUCUUCACAGUUACAUGAGCCCCUGGUUUUCCAGAUUCCUCUCUUGCUACAGCACGUUUUGGCUCAACUACUCUCCCAUCAAUUGAAUGAGGUCUUGCAGCCAUGGCAGCCAACAGAGGAUUGAGCAUCA
# B11: chr18:47247233:47247234:+_ENSMUSG00000042705_ENSMUST00000049388|mus_mus|FALSE|FALSE (ssRNA)
# RNA: GGGAGUUCUACAGUCCGACGAUCACGGCCUGCGGCUGCUUCCCUAAUUAAUUACUGUAAUGAGUAAGGUUUCAUACUCUGCUAGGGCACCAUCAUACCUUCUGCCUACAGACCUUCCCUGAUCCCUGAAAGCAAUCUGACAGACAACAGAGGAUUGAGCAUCA
# B12: chr12:39763582:39763583:-_ENSG00000139116_ENST00000544797|hu_mus|hu_hu_hu_mus_False|68_88 (ssRNA)
# RNA: GGGAGUUCUACAGUCCGACGAUCCUCUAGGAACUGGGCAUUCACUUUAAAAUCUGGAGGGGGCAGCCCAUUUUUAAUCGCUGAGGUCUUUUUCUCAUCAAUACUCUUGAACAGGUGUCUAACAGCACGAGAGAUGAUGCCCUGCAACAGAGGAUUGAGCAUCA
# B13: chr3:88342849:88342850:+_ENSMUSG00000074480_ENSMUST00000172699|mus_hu|FALSE|FALSE (ssRNA)
# RNA: GGGAGUUCUACAGUCCGACGAUCCUUUGUGGGUAAAGAGUGGAGAGGGGGAGGGGGACGACAGACAGACAUCCCUUCUUCCCACCCCCCUCCCCACCUGCCCCCCGGCAACCGAGGGUGCCCAUUUGGUUUGGUUUCUAUUGUCAACAGAGGAUUGAGCAUCA
# B14: chr7:127978362:127978363:-_ENSG00000106344_ENST00000459726|hu_mus|FALSE|FALSE (ssRNA)
# RNA: GGGAGUUCUACAGUCCGACGAUCUAUCUCCUUCAUAUUCGCGCCUUUGAGAGCUUUUCCUGCUUCAAGGAGGUUUUUGAACUGAACAAAAGCAAAACCACGCAUCUUUCCAUCUGGCUUCUUUGGGAUAUUCACUUCAAGAACCAACAGAGGAUUGAGCAUCA
# Biological target: T1, UNK ZnF1-3 (human, UniProt Q9C0B0 31-174)
# T1 sequence: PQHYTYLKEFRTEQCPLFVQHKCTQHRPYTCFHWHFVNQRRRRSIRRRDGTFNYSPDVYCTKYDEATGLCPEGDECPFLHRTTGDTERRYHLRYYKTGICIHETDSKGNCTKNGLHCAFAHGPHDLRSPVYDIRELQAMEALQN
# Assay: nsRBNS (natural sequence RNA bind-n-seq); RBNS binding buffer (assumed for nsRBNS): 25 mM Tris pH 7.5, 150 mM KCl, 3 mM MgCl2, 0.01% Triton X-100, 500 ug/ml BSA, 20 U/ml SUPERase-In, 4 C; UNK is unkempt and MSI1 is Musashi-1; names of the RNAs are library labels; protein concentration not given here; high values mean tight binding
row,Binder,binding signal
1,B1,0.931 enrichment R
2,B2,0.653 enrichment R
3,B3,1.23 enrichment R
4,B4,1.03 enrichment R
5,B5,1.53 enrichment R
6,B6,0.742 enrichment R
7,B7,1.95 enrichment R
8,B8,1.08 enrichment R
9,B9,0.418 enrichment R
10,B10,0.929 enrichment R
11,B11,0.919 enrichment R
12,B12,1.61 enrichment R
13,B13,0.464 enrichment R
14,B14,1.16 enrichment R
